Assay results taken from the supplement of paper PMC3334620.
Whole data set: some 33,000 sequences, median “E-score (-0.5 to 0.5)” near -0.021, cut for the highest 2% near 0.32. Some of the results follow.

target: T1, Zap1 (UniProt P47043); assay: PBM E-score (8-mer binding enrichment) (E-score (-0.5 to 0.5)); higher = stronger / more preferred TF binding; most listed sequences are background and not binding sites; details: protein concentration: 200 nM; construct: GST-full length
T1 sequence: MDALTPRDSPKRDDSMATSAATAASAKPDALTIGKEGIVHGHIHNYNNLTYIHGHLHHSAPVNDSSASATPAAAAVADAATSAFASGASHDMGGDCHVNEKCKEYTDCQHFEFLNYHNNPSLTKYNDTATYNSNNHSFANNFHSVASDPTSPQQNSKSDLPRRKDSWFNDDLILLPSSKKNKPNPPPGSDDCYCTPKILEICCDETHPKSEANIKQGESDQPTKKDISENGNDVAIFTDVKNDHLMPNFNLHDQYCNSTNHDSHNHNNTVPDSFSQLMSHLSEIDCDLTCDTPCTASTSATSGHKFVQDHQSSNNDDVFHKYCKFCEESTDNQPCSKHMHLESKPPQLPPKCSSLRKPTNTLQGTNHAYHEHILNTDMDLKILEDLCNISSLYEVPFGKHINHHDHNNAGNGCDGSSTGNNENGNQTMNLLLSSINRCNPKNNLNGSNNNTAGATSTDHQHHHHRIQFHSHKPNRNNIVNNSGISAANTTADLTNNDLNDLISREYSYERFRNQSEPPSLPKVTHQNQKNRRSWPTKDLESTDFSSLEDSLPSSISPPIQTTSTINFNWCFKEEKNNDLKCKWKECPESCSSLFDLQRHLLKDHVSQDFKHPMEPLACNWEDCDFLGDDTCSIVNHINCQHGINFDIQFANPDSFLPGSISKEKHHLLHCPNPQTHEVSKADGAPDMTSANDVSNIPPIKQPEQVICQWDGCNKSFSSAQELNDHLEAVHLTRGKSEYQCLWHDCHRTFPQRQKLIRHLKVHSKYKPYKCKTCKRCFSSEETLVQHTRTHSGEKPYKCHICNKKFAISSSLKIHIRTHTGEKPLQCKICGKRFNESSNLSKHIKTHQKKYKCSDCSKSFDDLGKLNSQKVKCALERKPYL
Outline: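 Yeast transcription factors carrying a GST tag, as full-length proteins or DNA-binding domains, were produced by PURExpress in vitro transcription/translation. About 100-200 nM protein was applied to universal all-10-mer Agilent arrays, double-stranded by primer extension on fresh or once-stripped slides. Bound protein was detected with fluorescent anti-GST, and scans were normalised with masliner. The Universal PBM Analysis Suite gave each ungapped eight-base word, pooled with its reverse complement, an E-score, a modified Wilcoxon-Mann-Whitney statistic.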

Row | Sequence | PBM E-score
1 | TCAAATAA | 0.0658
2 | ATTTCTCA | -0.0175
3 | AGGGTATA | 0.407
4 | ATGGGTTC | 0.116
5 | ACTGTAGA | 0.00884
6 | CGGGGTAC | 0.316
7 | CAGGTCGC | 0.0273
8 | CAGCGTAC | -0.212
9 | CTCCTTTC | -0.0488
10 | AAGCTTTA | 0.0355
11 | CCAAGGCA | -0.00551
12 | ACCGTGTC | -0.0593
13 | GACCCAAC | 0.165
14 | ACACTTCC | -0.00939
15 | AATGTCGC | -0.176
16 | CTCCGGCA | -0.0211
17 | GGGTCGAC | 0.0155
18 | GCGGGGGA | -0.263
19 | ATCACTTG | -0.00539
20 | GGTCGCAA | 0.142
21 | CCATCACC | 0.254
22 | ATATAGGA | 0.0539
23 | GCCTATCA | 0.00364
24 | ATGTGATC | 0.0887
25 | CGTATAAA | 0.246

Row | Sequence | PBM E-score
26 | CCTAAAGA | 0.0641
27 | GTAATCGA | 0.084
28 | TGGAAACA | -0.0824
29 | GAGATTCA | -0.192
30 | AGTGGCTA | 0.0692
31 | ACGAACAC | 0.0706
32 | AGGCCTTA | 0.0176
33 | CAATGACG | 0.00061
34 | TATTATCA | 0.106
35 | ATGTAAGC | -0.0794
36 | CATGCTTA | -0.0902
37 | TCTAATCA | -0.0243
38 | GGATTTTA | -0.00871
39 | CTACGTAG | -0.0165
40 | AAGCGTCT | -0.232
41 | CACCGTAC | -0.0708
42 | AAATCCTG | -0.024
43 | ACTATCAA | 0.178
44 | CCAGCCGA | -0.197
45 | CGGAACTC | -0.237
46 | ACAAGCGG | 0.193
47 | AATAGACC | -0.0595
48 | GATGTCAC | -0.0681
49 | ACCGTAAT | 0.0558
50 | ATGAGAAC | 0.0779

Row | Sequence | PBM E-score
51 | ATCATGAC | 0.3
52 | AAGATCTT | 0.137
53 | CGGCGTCA | -0.0629
54 | CTTTTTAA | 0.119
55 | CTCTGCAG | -0.126
56 | CCCTTGAC | 0.193
57 | CAACTATG | 0.00478
58 | CGATTTCA | -0.0156
59 | CAGGACTA | -0.0298
60 | CGTTTCCA | 0.0387
61 | CTCGTTTA | -0.0846
62 | AAGCGGAG | -0.191
63 | CGCGACAG | 0.16
64 | CGCACAGA | -0.173
65 | CTCCGTAA | -0.034
66 | CCCATCTC | -0.208
67 | AATGTACC | 0.202
68 | TGAACTAA | -0.0312
69 | AAGTTATC | 0.0532
70 | GGATAACC | 0.436
71 | CTCGAGAG | -0.0444
72 | CGTTTCCC | -0.112
73 | CCTACTCA | -0.014
74 | AAAGACAG | 0.108
75 | GGCATAAA | 0.045

Row | Sequence | PBM E-score
76 | CCCAGTAG | -0.0192
77 | GTAGGAGA | -0.216
78 | AGAGGGCG | -0.236
79 | GACCTGAC | 0.113
80 | ACAGTGAA | -0.17
81 | AGCCCCTA | -0.139
82 | GAGGCCCA | -0.0554
83 | GAGATCGC | -0.329
84 | ACGGTGAG | -0.0979
85 | CATCCTGA | 0.0764
86 | CCATGGTA | 0.121
87 | CCCCCAAA | -0.22
88 | TACCGCAA | 0.186
89 | CCTCTGAG | 0.163
90 | ACACGTTG | -0.371
91 | ATGCCCCG | -0.218
92 | AGAAACGA | 0.158
93 | ACATCCCC | 0.138
94 | AATTGGCT | 0.134
95 | ACTAAACT | 0.141
96 | CGTTTAAC | 0.0721
97 | CGAGCTAG | -0.0682
98 | ATGACAAA | -0.0495
99 | CCTGAGAG | -0.0282
100 | AAGCCACC | -0.212

Row | Sequence | PBM E-score
101 | ACCCGTTC | 0.176
102 | AGTTCGCA | -0.0927
103 | ATCGCGAC | 0.0816
104 | AACCGCAT | 0.253
105 | CCCAACGG | 0.208
106 | ATCTAACC | 0.226
107 | AGAGGACA | -0.0899
108 | GTGTCATA | 0.165
109 | CGAAGGCG | -0.121
110 | GACAGGCC | -0.0803
111 | GCGGCAGA | -0.149
112 | CGAAAGGC | -0.166
113 | AAAATTGA | 0.101
114 | AGTTTGCC | 0.00335
115 | CCCTACCA | 0.113
116 | TGGTCTAA | 0.00632
117 | CTACTGTA | -0.0171
118 | CCGAGCCC | -0.365
119 | CGCCGGTC | -0.139
120 | ATAGTTAA | 0.0396
121 | GATTGTGA | 0.0466
122 | GACAGCTC | -0.222
123 | GAAAGGAC | -0.0349
124 | GTTGAGCA | -0.00381
125 | CGAAGCGC | -0.177

Row | Sequence | PBM E-score
126 | TACTCTCA | 0.00964
127 | CGTTAGCC | -0.0813
128 | TAAGCGGA | -0.111
129 | CCCAACCC | 0.163
130 | CAGAACTA | 0.0489
131 | ACGCCACT | -0.111
132 | AGTGTACG | 0.021
133 | AGCTACCG | -0.261
134 | ATCCAATA | 0.159
135 | CCGTTCTC | -0.047
136 | CGCAGCCG | -0.306
137 | AAATAGGA | 0.03
138 | AACTGCTG | -0.154
139 | AGAGGGTA | 0.29
140 | GATAATTA | 0.189
141 | CACTGACG | -0.0945
142 | CGCTCAAA | 0.0275
143 | AATTCTCT | -0.332
144 | GTCACAAA | 0.196
145 | CCCCGGAG | 0.153
146 | ACACCTGT | 0.00562
147 | GCCGCTCC | -0.35
148 | CAGTTTGA | 0.0416
149 | AAGGCGCT | -0.225
150 | CGCTGCAA | 0.0109

Row | Sequence | PBM E-score
151 | TATGTGCA | -0.041
152 | CGCTGACG | -0.249
153 | TATAAACA | 0.168
154 | GTCTGCCA | -0.0935
155 | AATCTGCC | -0.0605
156 | ACGAAACA | 0.0606
157 | AAATTAAA | 0.21
158 | GTCTCCGA | -0.187
159 | ACTGGCCA | -0.013
160 | GCATCAGA | -0.128
161 | AACGTCTT | -0.312
162 | GTACCCTA | 0.413
163 | CTGCAAGC | -0.142
164 | CCAGCAGA | -0.112
165 | CTGATCAA | -0.116
166 | CATCGGAG | -0.00826
167 | CCAAAAGG | 0.337
168 | GTTGATCA | 0.0532
169 | GAATAGAC | -0.188
170 | GAAACCGA | -0.0377
171 | ACTGATGA | 0.038
172 | GTGGGTGA | 0.0723
